From article PMC7819943, “Rice protein-binding microarrays: a tool to detect cis-acting elements near promoter regions in rice”
This is one part of the list.

Molecular target: T1, OsWOX13 (Oryza sativa, UniProt Q5QMM3 1-267)
T1 sequence: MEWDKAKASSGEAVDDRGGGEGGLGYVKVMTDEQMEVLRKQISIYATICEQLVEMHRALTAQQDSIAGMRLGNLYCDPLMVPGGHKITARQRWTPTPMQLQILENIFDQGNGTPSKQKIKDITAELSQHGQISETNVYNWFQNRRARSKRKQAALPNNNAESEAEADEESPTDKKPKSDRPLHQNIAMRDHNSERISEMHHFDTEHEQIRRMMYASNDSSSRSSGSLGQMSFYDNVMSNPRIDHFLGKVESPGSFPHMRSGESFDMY
Test: protein-binding microarray (RPBM); PBS, 2% BSA, 51.3 ng/ul salmon testes DNA, 50 uM zinc acetate, 200 nM TF, 25 C, 1 h; high values mean tight binding
Settings: protein: recombinant; tags: N-terminal polyhistidine and DsRed monomer fusion (pET32a); label: CyDye5-dUTP incorporated in the synthesized complementary strand; 3' TTTTT single-stranded linker to array surface; dsDNA, one strand shown
Procedure, shortened: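 Per-feature fluorescence intensity (arbitrary units), read on an Axon 4000B scanner, is the binding signal. Transcription factors carrying an N-terminal polyhistidine tag and DsRed fusion were expressed in E. coli BL21-CodonPlus and purified on Ni–NTA. A custom Agilent array, made double-stranded by primer extension with Cy5-dUTP and blocked with 2% BSA, was incubated with 200 nM protein in PBS, 2% BSA, salmon testes DNA and 50 µM zinc acetate at 25 °C for 1 h and then washed.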

Sequence | binding signal
ATGCTAAACATAAATTTGGATCATTCATCACTAGCGCTACCGGAGTCACCTAGTGCAG | 7330 fluorescence intensity (a.u.)
AGTTAATTAATTAGTCCATCCAAGGAAGGAGTATATGATTCGGAGTCACCTAGTGCAG | 55800 fluorescence intensity (a.u.)
ATTCGATTGATGACGTGGCGCCGCCAGCCGATGTGTGGACCGGAGTCACCTAGTGCAG | 24300 fluorescence intensity (a.u.)
TCCGCAAAACTTCCCAATAATTAAACCGTGAAATTTCAGCCGGAGTCACCTAGTGCAG | 3840 fluorescence intensity (a.u.)
GGCTATCGGTGGGTGGGTGGGGTGTACTACTCCCCTATAACGGAGTCACCTAGTGCAG | 3620 fluorescence intensity (a.u.)
TTTATATTTAACTAAATTTATAGATAAATATAGTAATATTCGGAGTCACCTAGTGCAG | 5460 fluorescence intensity (a.u.)
AATGCTTAATTTGACACACTTGCACTTGTAGGATGGGTATCGGAGTCACCTAGTGCAG | 10000 fluorescence intensity (a.u.)
GCTTAATTTGTCCTCCGATCCTCTCCTGGTCTCGGGTCTCCGGAGTCACCTAGTGCAG | 28500 fluorescence intensity (a.u.)
ATTCGACCTGACGAGATTTGACTGGTACGCAGATAACGAACGGAGTCACCTAGTGCAG | 3720 fluorescence intensity (a.u.)
GATAACTATTTAACAAATTTTAAGTAGAATTATGTGTAAACGGAGTCACCTAGTGCAG | 4310 fluorescence intensity (a.u.)
CTGAACGATTGGCTGCTAAATTAAGGACGATTGATGATGCCGGAGTCACCTAGTGCAG | 22400 fluorescence intensity (a.u.)
CATAACACTAATTGAGGTATCCATGGCATCCATCAGGTAGCGGAGTCACCTAGTGCAG | 45500 fluorescence intensity (a.u.)
CAGTTAAATTTATTTTATGTCCTTGTTTCAAGTTTTGAGCCGGAGTCACCTAGTGCAG | 14300 fluorescence intensity (a.u.)
GTGAAACGAGCGTAACTTAACTGGTTAGATTTCTTATGGTCGGAGTCACCTAGTGCAG | 3480 fluorescence intensity (a.u.)
ACAATTGAATGATTGATTGCAGCTCAAGCTTCAATCCGCACGGAGTCACCTAGTGCAG | 63900 fluorescence intensity (a.u.)
TACCGTTTTCACCCCTAATTGGGACAACCCAATTTGCAGTCGGAGTCACCTAGTGCAG | 6380 fluorescence intensity (a.u.)
GTAATAATTATTATATTTTAGTGCGTACCAGCACTCCCATCGGAGTCACCTAGTGCAG | 13700 fluorescence intensity (a.u.)
TATCTTAAAGTTAACTGTAAAATTTAAATCTAAACCTTAGCGGAGTCACCTAGTGCAG | 3310 fluorescence intensity (a.u.)
ATCTGTTCATTTGATTTGAAGTCTAAATCCACTTTCCTCACGGAGTCACCTAGTGCAG | 5580 fluorescence intensity (a.u.)
ATGATTTGCACCGAGAAAACGAACGATATGCTACTCTCTACGGAGTCACCTAGTGCAG | 10300 fluorescence intensity (a.u.)
ACCCCACTGGATTGATGAGGATTATGGATTAATACTGGAGCGGAGTCACCTAGTGCAG | 26900 fluorescence intensity (a.u.)

Sequence | binding signal
AGTGTGATTGCCCTCATGGATTCAGCGGAGATGCCATAAACGGAGTCACCTAGTGCAG | 16600 fluorescence intensity (a.u.)
TAGATTGGACCACTATTAAGGGAACACCGTCACATAGGTGCGGAGTCACCTAGTGCAG | 5850 fluorescence intensity (a.u.)
TAAATTGAATGGTTTTGTAAGTTGAGGGACGTCATATATCCGGAGTCACCTAGTGCAG | 21500 fluorescence intensity (a.u.)
TACCAATCCCACAAGTTAACCGGAAGTTATATGCATGCTGCGGAGTCACCTAGTGCAG | 3270 fluorescence intensity (a.u.)
TTAATTAGGCTTAATAGATTCGTCTAGCAGTTTACATGCGCGGAGTCACCTAGTGCAG | 39500 fluorescence intensity (a.u.)
TATAAATAGACGATGAGGTCGCCCCTTTCCTCCATACACACGGAGTCACCTAGTGCAG | 6330 fluorescence intensity (a.u.)
CCAATTAATCATCAAGCTATCTTTGTGCAGGGGAAATCAACGGAGTCACCTAGTGCAG | 6200 fluorescence intensity (a.u.)
ATAATGATACTTAATTAATCATGTGCTAATAATCACCCGTCGGAGTCACCTAGTGCAG | 21000 fluorescence intensity (a.u.)
TACTAATTGTGTGCTTGGAGTCCAAAATTAGCAAAGGTAGCGGAGTCACCTAGTGCAG | 10100 fluorescence intensity (a.u.)
GCTAGATTGGCCGCTGGCTGTTAGCTAGGACTAACACACACGGAGTCACCTAGTGCAG | 24800 fluorescence intensity (a.u.)
AGCTCCGGTAATTACGATTTGTAGATTGGGATCCAGGGAACGGAGTCACCTAGTGCAG | 27700 fluorescence intensity (a.u.)
TTAAATATAATTAGTATACTATGACAATGATAAATAAGTTCGGAGTCACCTAGTGCAG | 16300 fluorescence intensity (a.u.)
GAGCCTAATTAGGCCATGATTAGCCATAAGTGCTACAGTACGGAGTCACCTAGTGCAG | 40800 fluorescence intensity (a.u.)
AAGATTAAAATTTTCGTGACACACTTTTCAAACTGTTAAACGGAGTCACCTAGTGCAG | 6960 fluorescence intensity (a.u.)
AATGTAGAAGTATTCAATTAACAGGTGATCTTTCTACTCTCGGAGTCACCTAGTGCAG | 3490 fluorescence intensity (a.u.)
TGGTTTAATTTCATCAGTTTTCCTCCATTTCCTTCTTTAGCGGAGTCACCTAGTGCAG | 4760 fluorescence intensity (a.u.)
TTTATTTGATGATTGGTATTCTATGGTTACTTTCCCAGGGCGGAGTCACCTAGTGCAG | 44900 fluorescence intensity (a.u.)
GCTCAAATTTATATGAAAATCAGTTAAATATATCAAAACCCGGAGTCACCTAGTGCAG | 3240 fluorescence intensity (a.u.)
GTCACATCGGACGTTTGATTGGATGTCGGAAAGAGTTTTCCGGAGTCACCTAGTGCAG | 18200 fluorescence intensity (a.u.)
GGTCTCCTCCAATAATTAATTTGAACCAGTAATAGCAAGACGGAGTCACCTAGTGCAG | 9830 fluorescence intensity (a.u.)
TAGATAATACATAATTAATTATTTGCTAAACTATTACTTCCGGAGTCACCTAGTGCAG | 36600 fluorescence intensity (a.u.)
